From PubChem BioAssay AID588453 (National Center for Advancing Translational Sciences (NCATS), 2011)
The campaign covered roughly 390,000 compounds. About 4,000 (1%) were called active. The shares of active, inactive and inconclusive entries below differ from those in the screen. The call rests on the fitted dose curve; in most records, active means well fitted inhibition curve with a large enough effect; inconclusive means small, poorly fitted or top-dose-only effect; inactive means no such curve, though single readings can be large or run the other way. Potencies of inconclusive entries are doubtful fits and often do not repeat.

Target: Thioredoxin reductase 1, cytoplasmic (Rattus norvegicus) (UniProt O89049)
Experiment: qHTS Assay for Inhibitors of Mammalian Selenoprotein Thioredoxin Reductase 1 (TrxR1): qHTS; further: nearly all actives have a fitted effect of over 65% in size
Details: recombinant rTrxR1, NADPH fluorescence consumption, selenite substrate; series mostly up to 114 µM; activity change, negative = inhibition: at the top concentration
Summary of the method: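 Rat TrxR1 (90 nM in the dispensed reagent) was pre-reduced with 400 uM NADPH for 5 min at room temperature, then incubated with compound for 15 min. After 400 uM selenite was added, NADPH fluorescence (Ex 340/Em 450 nm) was followed for 8 min.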
On the % scale 0 is the no-effect control and ±100 the full control effect; potency means the concentration at half of the fitted maximal effect; tags describe the fitted curve by direction and shape.

UniProt O89049, sequence (O89049 whole entry, looked up): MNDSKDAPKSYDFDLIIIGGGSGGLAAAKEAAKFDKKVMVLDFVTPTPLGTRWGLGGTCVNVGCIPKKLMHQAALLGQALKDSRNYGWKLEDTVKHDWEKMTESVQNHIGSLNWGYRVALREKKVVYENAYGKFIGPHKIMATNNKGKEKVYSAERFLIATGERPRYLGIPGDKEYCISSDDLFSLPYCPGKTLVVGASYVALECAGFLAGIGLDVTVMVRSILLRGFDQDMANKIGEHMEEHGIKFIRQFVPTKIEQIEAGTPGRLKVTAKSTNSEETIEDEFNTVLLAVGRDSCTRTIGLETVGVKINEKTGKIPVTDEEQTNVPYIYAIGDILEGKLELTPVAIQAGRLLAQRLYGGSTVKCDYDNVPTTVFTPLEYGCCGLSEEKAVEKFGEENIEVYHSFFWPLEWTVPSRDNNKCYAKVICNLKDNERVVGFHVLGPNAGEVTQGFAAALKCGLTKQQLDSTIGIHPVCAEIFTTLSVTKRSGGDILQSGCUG

SMILES | Potency | activity change, negative = inhibition
N#Cc1cc2c(nc1SCC(=O)Nc1sc3c(c1C#N)CCC3)CCCCCC2 | inconclusive: 70.8 µM [inhibitor, partial curve, poor fit] | –
Cc1nn(-c2ccc(Cl)cc2)c(Cl)c1/C=C(\C#N)C(N)=O | inconclusive: 56.2 µM [inhibitor, partial curve] | –
COc1ccccc1-c1sc2cc3c(cc2c1-c1ccc(OCCN2CCCCC2)cc1)OCO3 | – | inactive: 64.9% [at 57.1 µM]
O=C1N/C(=C/c2ccc(N3CCCC3)cc2)C(=O)N1c1ccccc1 | – | inactive: 7.1%
CN(C(=O)CC1C(=O)NCCN1Cc1cccc(F)c1F)C1CCOCC1 (stereo not given) | inconclusive: 79.4 µM [inhibitor, single point] | –
COC(=O)C1=C(C)N(Cc2ccco2)C(=O)/C1=C\c1ccc(N(C)C)cc1 | – | inactive: 1.28%
CCc1cc(C(c2ccccn2)N2CCN(C)CC2)c(NC(=O)c2ccccc2)s1 (stereo not given) | inconclusive: 20 µM [inhibitor, single point] | –
Cc1ccc(SCC(=O)NC(=O)NCc2ccco2)c(C)c1 | inconclusive: 44.7 µM [inhibitor, single point] | –
CCC1CCCCN1CCCNC(=O)c1sc2nc(C)cc(C)c2c1-n1cccc1 (stereo not given) | – | inactive: 15%
O=C(CSc1nc2ccccc2s1)NNC(=S)Nc1ccccc1 | inconclusive: 11.2 µM [inhibitor, partial curve] | –
CCCCCCc1nc2ccccc2c(=O)n1NC(=O)c1c(O)c2c(n(CC(C)C)c1=O)CCCC2 | – | inactive: 29.7%
CC(=O)C1=C(C)N=c2s/c(=C/c3ccc4c(c3)OCO4)c(=O)n2C1c1ccc(N(C)C)cc1 (stereo not given) | – | inactive: -12.5%
Cc1ccc(-c2cc(C(=O)N(C)CC(=O)Nc3ccccc3Br)c3ccccc3n2)o1 | inconclusive: 79.4 µM [inhibitor, single point] | –
Cc1ccc(NC(=O)COC(=O)C2CCN(c3ccc(C(F)(F)F)cn3)CC2)cc1C | inconclusive: 79.4 µM [inhibitor, partial curve, poor fit] | –
COc1cc2[nH]c(=S)nc(NCCc3ccc(C)cc3)c2cc1OC | – | inactive: 11.3%
O=C(c1ccccc1NS(=O)(=O)c1ccc([N+](=O)[O-])cc1[N+](=O)[O-])N1O[C@@H]2C=C[C@H]1C2 | active: 3.16 µM | –
O=C1CCC/C(=N\NC(=O)c2ccc(NS(=O)(=O)c3ccc(Br)cc3)cc2)C1 | inconclusive: 79.4 µM [inhibitor, partial curve, poor fit] | –
COC(=O)c1c(NC(=S)NNS(=O)(=O)c2ccc(OC)cc2OC)sc2c1CCCCCC2 | inconclusive: 56.2 µM [inhibitor, partial curve, poor fit] | –
Cc1csc(SCC(=O)c2ccc(S(=O)(=O)N3CCOCC3)cc2)n1 | inconclusive: 15.8 µM [inhibitor, full curve, poor fit] | –
CCCC(=O)Nc1ccc(NC(=S)NC(=O)c2ccccc2[N+](=O)[O-])cc1 | inconclusive: 39.8 µM [inhibitor, partial curve, poor fit] | –
O=C(CCS(=O)(=O)c1nc(-c2ccc3c(c2)OCO3)cc(C(F)(F)F)n1)Nc1ccc(F)cc1F | inconclusive: 22.4 µM [inhibitor, single point] | –
COc1cc(NC(=O)c2cccc(Br)c2)nc(OC)n1 | – | inactive: 11.6% [at 57.1 µM]

SMILES | Potency | activity change, negative = inhibition
COC(=O)C(C(=O)OC)C(c1ccccc1)C(C(=O)c1ccccc1)[N+](=O)[O-] (stereo not given) | inconclusive: 14.1 µM [inhibitor, partial curve, poor fit] | –
COCCN1C(=O)/C(=C/c2ccc(OCc3ccc(C(=O)O)cc3)c(OC)c2)SC1=Nc1ccccc1 | – | inactive: -23%
COC(C(=O)Nc1ccnn1C1CCN(Cc2ccccn2)CC1)c1ccccc1 (stereo not given) | inconclusive: 79.4 µM [inhibitor, single point] | –
O=C(N/N=C/c1ccc[nH]1)c1c[nH]c2ccccc12 | inconclusive: 28.2 µM [inhibitor, partial curve] | –
Cc1ccnc(NC(c2ccccc2O)c2oc(CO)cc(=O)c2O)c1 (stereo not given) | inconclusive: 70.8 µM [inhibitor, single point] | –
Cc1c(-c2ccnc3cc(C(=O)O)nn23)cnn1C | – | inactive: 4.03% [at 57.1 µM]
Cc1[nH][nH]c(=O)c1C(c1ccc([N+](=O)[O-])cc1)c1c(C)[nH][nH]c1=O | inconclusive: 56.2 µM [inhibitor, single point] | –
CCCN(CCC)S(=O)(=O)c1ccc(Cl)c([N+](=O)[O-])c1 | inconclusive: 5.62 µM [inhibitor, full curve] | –
Cc1c(Cc2ccccc2)c(=O)oc2c(C)c(OC(C)C(=O)NCC3CCC(C(=O)O)CC3)ccc12 (stereo not given) | inconclusive: 79.4 µM [inhibitor, single point] | –
Cc1ccc(S(=O)(=O)N(C(=O)c2ccncc2)c2ccc(OC(=O)c3ccncc3)cc2)c(C)c1 | inconclusive: 70.8 µM [inhibitor, single point] | –
CC(C)CC1C(C#N)=C(N)SC(N)=C1C#N | inconclusive: 44.7 µM [inhibitor, partial curve] | –
Cc1ccc(-n2ncc3c(NC4CCCCC4)ncnc32)cc1 | – | inactive: 20.9% [at 57.1 µM]
COc1cc(C2C3CN(C)CC=C3C(C#N)=C(N)C2(C#N)C#N)ccc1OC(C)C (stereo not given) | inconclusive: 79.4 µM [inhibitor, single point] | –
O=C(CCc1ccccc1)n1nc(-c2ccco2)nc1SCc1ccccc1 | inconclusive: 15.8 µM [inhibitor, partial curve, poor fit] | –
CC12CCC(C(=O)N(CSC(=S)N/N=C\c3ccccc3O)C1=O)C2(C)C (stereo not given) | inconclusive: 28.2 µM [inhibitor, single point] | –
COc1ccccc1Nc1ccc(S(=O)(=O)N2CCCCC2)cc1[N+](=O)[O-] | inconclusive: 28.2 µM [inhibitor, single point] | –
Cc1ccc(/C=C/C(=O)OCC(=O)N2CC(=O)Nc3ccccc32)o1 | active: 28.2 µM | –
Cc1c(C)n(C(=O)CSc2nccn2C)c2ccccc12 | inconclusive: 44.7 µM [inhibitor, single point] | –
COc1ccc(-c2nn(CCC(=O)O)cc2CCC(=O)O)cc1 | inconclusive: 100 µM [inhibitor, single point] | –
COc1cccc(CN2CCNC(=O)C2CC(=O)N(C)CC2CCOCC2)c1 (stereo not given) | inconclusive: 50.1 µM [inhibitor, partial curve] | –
Cc1ccccc1-c1nc(CS(=O)(=O)CC(=O)NC(C)c2ccccc2)c(C)o1 (stereo not given) | inactive | –
CCc1c(C)c(C#N)c2nc3ccccc3n2c1NC | – | inactive: -3.53%

SMILES | Potency | activity change, negative = inhibition
CCC1(c2ccccc2)C(=O)N(C(=O)OC(C)(C)C)N1C(=O)OC(C)(C)C (stereo not given) | inconclusive: 56.2 µM [inhibitor, partial curve] | –
COc1ccc(Cl)cc1NC(=O)CN(c1cc(C)cc(C)c1)S(=O)(=O)c1c(C)n[nH]c1C | – | inactive: 27.5%
COc1c(C)oc2cc(O)ccc2c1=O | inconclusive: 70.8 µM [inhibitor, partial curve] | –
Cc1ccc(CNc2ccc(-c3nc(-c4ccco4)no3)cc2[N+](=O)[O-])cc1 | – | inactive: -16.6%
CCC(=O)Nc1nnc(S(=O)(=O)N(C)Cc2ccco2)s1 | inconclusive: 35.5 µM [inhibitor, partial curve] | –
O=C1OC(c2ccccc2)=N/C1=C\C=C\c1ccco1 | inconclusive: 56.2 µM [inhibitor, partial curve, poor fit] | –
Cc1cc(C)cc(NC(=S)NC2CC3CCCC(C2)N3C2CC2)c1 (stereo not given) | inconclusive: 15.8 µM [inhibitor, full curve] | –
C(=Cc1c[nH]c2ccccc12)c1ccc2ccccc2n1 | inconclusive: 89.1 µM [inhibitor, partial curve, poor fit] | –
COCCNC(=S)c1ccc(Br)cc1 | – | inactive: -5.03%
Cn1c(=O)c2c(nc(CN3CCC(Cc4ccccc4)CC3)n2CCN2CCOCC2)n(C)c1=O | inconclusive: 89.1 µM [inhibitor, single point] | –
Cc1c(C)c2ccc(OC(C)C(=O)NCCCn3ccnc3)c(C)c2oc1=O (stereo not given) | – | inactive: 21.7%
CC(C)=CCC/C(C)=C/CNC(=O)C[C@H]1C[C@H](C(=O)N2CCCCC2)[C@@]2(C)c3[nH]c4cc(CCC(=O)N(C)C)ccc4c3CCN2C1=O | – | inactive: 2.52%
CCc1ccc2oc(-c3ccc(OC)cc3)cc(=Nc3c(C)n(C)n(-c4ccccc4)c3=O)c2c1 | inconclusive: 89.1 µM [inhibitor, single point] | –
COc1cc(/C=C(/C#N)C(=O)Nc2ccccc2)c(Br)cc1OCc1ccc(C(=O)O)cc1 | inconclusive: 17.8 µM [inhibitor, partial curve, poor fit] | –
O=C(O)CC1S/C(=N/N=C/C=C/c2ccccc2)NC1=O (stereo not given) | inconclusive: 70.8 µM [inhibitor, partial curve] | –
OCCCNC(=S)Nc1ccc2nc(-c3ccccn3)c(-c3ccccn3)nc2c1 | inconclusive: 14.1 µM [inhibitor, full curve] | –
Cc1nc(SCC(=O)NCc2ccco2)nc(C)c1C | inconclusive: 79.4 µM [inhibitor, single point] | –
COc1cc(C2/C(=C(\O)c3ccc4c(c3)CC(C)O4)C(=O)C(=O)N2CC2CCCO2)cc(OC)c1OC (stereo not given) | inconclusive: 89.1 µM [inhibitor, single point] | –
C(=Cc1c[nH]c2ccccc12)c1nccc2ccccc12 | inconclusive: 79.4 µM [inhibitor, single point] | –
N=C1/C(=C\c2coc3ccccc3c2=O)C(=O)N=C2SC(c3ccncc3)=NN12 | inconclusive: 50.1 µM [inhibitor, partial curve, poor fit] | –
CC(CN1CCNCC1)(NS(=O)(=O)c1ccccc1)c1ccccc1 (stereo not given) | inconclusive: 44.7 µM [inhibitor, partial curve, poor fit] | –
